Results as given in PubChem BioAssay AID2546 (National Center for Advancing Translational Sciences (NCATS), 2010).
Out of some 310,000 compounds screened, about 11,000 (3.5%) were called active. Inconclusive results (about 8%) are left out. Calls come from the whole dose curve; as a rule, active = well fitted inhibition curve with a large enough effect; inconclusive = small, poorly fitted or top-dose-only effect, or effect the other way; inactive = flat fitted curve, though single readings scatter. The list shows a part of the results, in another mix than the full data.

Experiment: VP16 counterscreen qHTS for inhibitors of ROR gamma transcriptional activity;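 note: Gal4-VP16 expression switched on by copper sulfate through the metallothionein promoter; nearly all actives have a fitted effect of over 50% in size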
Conditions: Drosophila S2 Gal4-VP16 UAS-luciferase, luminescence, 20 h; series mostly up to 53.6 µM; activity, negative = inhibition: at the top concentration
From the text: NIH Molecular Libraries Probe Production Network [MLPCN]
NIH Chemical Genomics Center [NCGC]
Assay Provider: Dan Littman, New York University
The retinoic acid-related orphan receptor (ROR) gamma is a transcription factor that has a central role in the differentiation of Th17 cells, a subset of T helper cells that secrete the inflammatory cytokines IL-17, IL-17F, and IL-22. Th17 cells have been implicated in graft versus host disease, autoimmune disease and asthma. ROR gamma is induced in naive T helper cells in the presence of TGF-beta combined with IL-6, IL-21, or IL-23, and thereafter directs the expression of the Th17 lineage cytokines. To identify nonspecific inhibitors, a Drosophila Schneider cell line was stably transfected with two vectors: a gene expressing a fusion of the Gal4 DNA binding domain and VP16 transactivation domain under the control of the metallothionine promoter and a Photinus luciferase reporter regulated by the Gal4 binding site enhancer, UAS. […] Small molecule inhibitors that inhibit components common to the RORgt and VP16 assays, such as the Gal4 DNA binding domain or the UAS luciferase reporter, will be active in both assays and thus scored as nonspecific.
For screening, 600 cells in 4 uL/well were dispensed into white solid 1536-well plates (Grenier) using a solenoid-based dispenser. Following transfer of 23 nL compound or DMSO vehicle by a pin tool, the plates were incubated 1 hr at ambient temperature, and 1 uL/well copper sulfate (700 uM final concentration) was added. The plates were centrifuged 15 s at 1000 RPM and incubated 20 hr at ambient temperature. After addition of 1.5 uL Photinus luciferase detection reagent, the plates were incubated 10 min at ambient temperature and then read by a ViewLux (Perkin Elmer) to detect luminescence.
% is set by controls: 0 for no effect and ±100 for the full control effect; potency is the fitted concentration of half-maximal effect.

Row | SMILES | activity, negative = inhibition | Potency
1 | C/C=C(/C)C(=O)OC1Cc2c(ccc3ccc(=O)oc23)OC1(C)C (stereo not given) | inactive: 9.01% | 
2 | Cc1cccc(C(=O)NN/C=C/C(=O)c2ccccc2)c1 |  | active: 5.01 µM
3 | CC(=O)N1[C@H](C)C=C[C@]1(Cc1ccccc1)C(=O)NCc1cc(F)cc(C(F)(F)F)c1 | inactive: 8.7% | 
4 | CC1=C(CC(=O)O)c2cc(F)ccc2/C1=C/c1ccc(S(C)=O)cc1 (stereo not given) | inactive: 4.33% | 
5 | OCCN1CCN(CC/C=C2\c3ccccc3Sc3ccc(C(F)(F)F)cc32)CC1 | inactive: 5.47% [at 17 µM] | 
6 | COc1ccc(C2/C=C\CN(C(=O)C3CC3)[C@H](Cc3ccccc3)C(=O)N2Cc2ccc(F)cc2)cc1 (stereo not given in full) | inactive: -19.7% | 
7 | COC(=O)Nc1nc2ccc(Sc3ccccc3)cc2[nH]1 |  | inactive
8 | CCOC(=O)Cc1csc(NC(=O)/C=C\c2ccccc2Cl)n1 | inactive: -29.9% | 
9 | N[C@@H](Cc1c[nH]c2ccc(O)cc12)C(=O)O | inactive: -8.42% | 
10 | CCCCCCCCCCCCCCCC(O)C(N)CO (stereo not given) | inactive: -5.72% | 
11 | COc1ccc(Br)cc1[C@H]1[C@@H]2C=CCC[C@@]2(C)C(=O)N1Cc1ccccc1 | inactive: -9.04% | 
12 | Cc1cc(C)nc(NS(=O)(=O)c2ccc(N/C=C/C(=O)c3ccc(Cl)cc3)cc2)n1 | inactive: -28.6% | 
13 | COc1ccc([C@H]2CC(=O)c3c(O)cc(O)cc3O2)cc1O | inactive: 8.81% | 
14 | COc1cc(OC)c2c(-c3ccccc3)cc(=O)oc2c1C(CCN1CCCCC1)c1ccc2c(c1)OCO2 (stereo not given) | inactive: -0.296% | 
15 | O=C(O)/C(=C1/OC(=O)c2ccccc21)c1ccccc1 | inactive: -1.73% | 
16 | O=C(Nc1ccc(-c2nc3ccccc3s2)cc1)C1=COCCO1 |  | active: 4.47 µM
17 | O=C(O)c1cccc(-n2cccc2/C=C/[N+](=O)[O-])c1 | inactive: 5.78% | 
18 | Cc1c2oc3c(C)ccc(C(=O)N[C@@H]4C(=O)N[C@@H](C(C)C)C(=O)N5CCC[C@@H]5C(=O)N(C)CC(=O)N(C)[C@@H](C(C)C)C(=O)O[C@H]4C)c3nc-2c(C(=O)N[C@@H]2C(=O)N[C@@H](C(C)C)C(=O)N3CCC[C@@H]3C(=O)N(C)CC(=O)N(C)[C@@H](C(C)C)C(=O)O[C@H]2C)c(N)c1=O | inactive: -4.61% | 
19 | O=C(Nc1ccc2c(c1)OCCO2)C(=O)c1c[nH]c2ccccc12 |  | active: 3.16 µM
20 | NNC(=O)[C@H]1C[C@@H]1c1ccccc1 | inactive: -6.06% | 
21 | CN1CCCC[C@@H]1CCN1c2ccccc2Sc2ccc(S(C)=O)cc21 (stereo not given in full) | inactive: 2.27% [at 17 µM] | 
22 | CCN1C(=S)N[C@@H](CCc2ccccc2)[C@H](C(=O)OC)[C@H]1C | inactive: -15.7% | 
23 | O=C(NC1CC1)C1=C[C@H](C2CCCCC2)C[C@H](OCc2ccc(CO)cc2)O1 | inactive: 2.47% | 
24 | c1ccc2sc(SSc3nc4ccccc4s3)nc2c1 | inactive: -4.99% | 

Row | SMILES | activity, negative = inhibition | Potency
25 | Nc1ccccc1C(=O)NNc1ncc(C(F)(F)F)cc1Cl |  | active: 1 µM
26 | C=Cc1c(C)c2cc3[nH]c(cc4nc(cc5nc(cc1[nH]2)C(C)=C5CCC(=O)O)C(CCC(=O)O)=C4C)c(C)c3C=C | inactive: 0.107% | 
27 | COC(=O)[C@H](C)[C@@H]1C[C@@]1(C)[C@@H](NC(=O)OCc1ccccc1)c1ccccc1 |  | inactive
28 | COc1ccc(-c2cc(C(F)F)nc(-n3nc(C)cc3C)n2)cc1 |  | active: 1.41 µM
29 | COc1ccc(S(=O)(=O)N2c3ccc(Cl)cc3[C@](O)(c3ccccc3Cl)[C@@H]2C(=O)N2CCC[C@H]2C(N)=O)cc1OC | inactive: -7.22% | 
30 | O=C(Nc1ccccc1Cl)/C(Cl)=C(\Cl)S(=O)c1ccccc1 (stereo not given) |  | active: 0.794 µM
31 | CCO[C@H]1OC(C(=O)N2CCOCC2)=C[C@@H](c2ccc(Br)cc2)[C@@H]1CCCO | inactive: 1.5% | 
32 | CN(C)CCn1c(NC(=O)c2ccc(Cl)cc2)nc2ccccc21 |  | active: 1.41 µM
33 | Cn1nnnc1SCC1=C(C(=O)O)N2C(=O)[C@@H](NC(=O)[C@H](O)c3ccccc3)[C@H]2SC1 | inactive: -0.928% | 
34 | C=C/C1=C/Cc2ccccc2[C@H](C[N+](=O)[O-])C(C(=O)OC)(C(=O)OC)C1 | inactive: 3.13% | 
35 | COc1ccc2c(c1)C(=O)[C@@H](O)[C@H](c1ccc(OC)c(Br)c1)O2 | inactive: -14.1% | 
36 | COc1ccc2c(=O)c(-c3ccc4c(c3)OCO4)coc2c1 | inactive: -26.6% | 
37 | O=C1/C(=C/c2ccc(O)c(O)c2)Oc2cc(O)ccc21 | inactive: -4.92% | 
38 | COc1ccc(C2Oc3ccccc3C3=C2C(c2cccs2)n2ncnc2N3)cc1 (stereo not given) |  | active: 2.51 µM
39 | O=C(N/C(=C\c1ccco1)C(=O)N1CCCC1)c1cccs1 | inactive: 15.5% [at 0.365 µM] | 
40 | N#C/C(=C\c1ccc(N2CCOCC2)o1)c1nc2ccccc2[nH]1 | inactive: 0% | 
41 | COC(=O)[C@H](C)[C@H]1C[C@]1(C)[C@H](NC(=O)OCc1ccccc1)c1ccccc1 | inactive: 9.43% | 
42 | COc1ccccc1/C=C/C(=O)NC(=S)N1CCOCC1 |  | active: 8.91 µM
43 | COC1=C(OC)C(=O)C(CCCCCCCCCCO)=C(C)C1=O | inactive: 4.38% | 
44 | CCS(=O)(=O)N1Cc2ccccc2CC1C(=O)Nc1nc2ccc(F)cc2s1 (stereo not given) |  | active: 11.2 µM
45 | CCCCc1ccc(/C=C2\C(=O)ON=C2c2ccccc2)s1 | inactive: -11.7% | 
46 | COc1ccc(CCN2C(=O)C3C4C=CC(C3C2=O)C2C(=O)N(CCc3ccc(OC)c(OC)c3)C(=O)C42)cc1OC (stereo not given) |  | active: 8.91 µM
47 | O=S(=O)(c1ccccc1)N1CCN(c2cc(-c3ccccc3)nc3ncnn23)CC1 |  | active: 5.62 µM
48 | CCOC(=O)/C(C#N)=C\c1cc(C)n(-c2ccccc2)c1C | inactive: -22.6% | 

Row | SMILES | activity, negative = inhibition | Potency
49 | O=C(NC(=S)NCCc1ccccc1)C1CCCCC1 |  | active: 3.98 µM
50 | CCCC1CC(C(=O)NC(C(C)Cl)C2OC(SC)C(O)C(O)C2O)N(C)C1 (stereo not given) | inactive: -7.26% | 
51 | CN1CCN(CC/C=C2/c3ccccc3Sc3ccc(S(=O)(=O)N(C)C)cc32)CC1 | inactive: 9.96% | 
52 | C=CCOC(=O)/C(=C\c1cccc2ccccc12)NC(=O)c1ccccc1 | inactive: 4.37% | 
53 | O=C(N/N=C/C=C/c1ccco1)c1cccnc1 | inactive: 12.5% | 
54 | CC[C@H]1OC(=O)[C@H](C)[C@@H](O[C@H]2C[C@@](C)(OC)[C@@H](O)[C@H](C)O2)[C@H](C)[C@@H](O[C@@H]2O[C@H](C)C[C@H](N(C)C)[C@H]2O)[C@](C)(O)C[C@@H](C)C(=O)[C@H](C)[C@@H](O)[C@]1(C)O | inactive: -2.27% | 
55 | COC(C[C@@H](O)CC(=O)[C@@H](C)OCc1ccccc1)OC | inactive: -0.47% | 
56 | CCOC(=O)/C(C#N)=C/c1c[nH]c2ccccc12 | inactive: 14.8% | 
57 | COC(=O)c1sccc1NC(=O)/C=C\c1ccc(Cl)cc1Cl | inactive: -3.03% | 
58 | Fc1ccc(SCCc2ccccn2)cc1 | inactive: 4.25% | 
59 | Cc1nc(CS(=O)(=O)c2ccc(Cl)cc2)cc(Sc2ccc(Cl)cc2)n1 |  | active: 11.2 µM
60 | NC(=O)CC[C@@H]1NC(=O)[C@H](Cc2ccccc2)NC(=O)[C@H](Cc2ccc(O)cc2)NC(=O)[C@@H](N)CSSC[C@@H](C(=O)N2CCC[C@H]2C(=O)N[C@@H](CCCN=C(N)N)C(=O)NCC(N)=O)NC(=O)[C@H](CC(N)=O)NC1=O |  | inactive
61 | C#CCOc1c(Br)cc(/C=N\NC(=O)CN2CCOCC2)cc1OCC |  | active: 35.5 µM
62 | COc1ccc(N=C2NC(=O)/C(=C\c3ccco3)S2)cc1 | inactive: -5.17% [at 10 µM] | 
63 | Cc1ccc(C(C)C)cc2c(C)ccc1-2 | inactive: 0.89% | 
64 | Cc1ccc(/C=N/NC(=O)c2c(-c3ccccc3)noc2C)c(O)c1 |  | active: 3.16 µM
65 | NNC(=O)[C@@H]1C[C@@H]1c1ccccc1 | inactive: -4.5% | 
66 | O=C(Nc1cccc(C(F)(F)F)c1)C1CCN(S(=O)(=O)c2ccc(N3CCCC3=O)cc2)CC1 |  | active: 12.6 µM
67 | CC(C)[C@H](NC(=O)N1CCn2c1nc1ccccc12)C(=O)N[C@@H](C(=O)O)c1ccccc1 | inactive: 2.58% | 
68 | CSC(SC)=C(C#N)C(=O)c1ccccc1 |  | active: 11.2 µM
69 | Cc1ccc(S(=O)(=O)N(C)C)cc1NC(=S)NC12CC3CC(CC(C3)C1)C2 |  | active: 5.62 µM
70 | COc1ccc2c(c1)O[C@@H](c1ccc3c(c1)OCO3)[C@H](OC(=O)N[C@H](C)C1CCCCC1)C2=O | inactive: -14.7% | 
